Source: PMC2805635
These are yes or no findings as the source states them, for the method shown. For some assays here: In cells and extracts the contact can be indirect. Some entries that bind do so weakly or less than the wild type.

Tests used:
psg5-Flag-Gadd34 180-610 = psg5-Flag-Gadd34 180-610 (UniProt O75807); assay: co-IP
psg5-Flag-Gadd34 180-674 = psg5-Flag-Gadd34 180-674 (UniProt O75807); assay: co-IP
psg5-Flag-Gadd34 180-483 = psg5-Flag-Gadd34 180-483 (UniProt O75807); assay: co-IP
[1] = target: Flag-tagged full length Gadd34 (psg5-Flag-Gadd34 1-674) (UniProt O75807); assay: co-IP
[2] = target: PP1a (catalytic subunit of protein phosphatase PP1) captured on microcystin sepharose (human (endogenous in BJAB)) (UniProt P62136); assay: pull-down
[3] = target: Gal4 DNA binding domain fused to the entire EBNA3C ORF (aa1-992), pAS1-EBNA3C (1-992) (Epstein-Barr virus) (UniProt P03204); assay: two-hybrid
[4] = target: pAS EBNA3C aa365-545 (Epstein-Barr virus) (UniProt P03204); assay: two-hybrid

Substance	binding [3]	binding [4]	other results
EBNA3C expressed from psg5-EBNA3C (from UniProt P03204 11-992)	–	–	binding (psg5-Flag-Gadd34 180-610): binds; binding (psg5-Flag-Gadd34 180-674): binds; binding (psg5-Flag-Gadd34 180-483): no binding; binding [1]: binds
Gadd34 of BJAB cells (from UniProt O75807 1-674)	–	–	binding [2]: binds
SUMO-3 (from UniProt P55854 1-103)	binds	binds	–
full length RBP-J-Kappa, cloned into pACT (from UniProt Q06330 1-500)	binds	no binding	–
pACT-Gadd34 aa395-674 (from UniProt O75807 395-674) (domain or fragment)	binds	binds	–
